From PubChem BioAssay (NCATS)
The shares of active, inactive and inconclusive entries below differ from those in the screen. For part of these data: Potencies beside an inconclusive call are fits to weak or partial responses and may not hold up. The source made the active and inactive calls. Unless noted, calls come from the whole dose curve; as a rule, active = well fitted curve in the direction sought with a large enough effect; inconclusive = small, poorly fitted or top-dose-only effect, or another doubt; inactive = no such curve, though single readings can be large; an effect the other way counts as inactive or inconclusive.

Assays:
[1] = P-glycoprotein substrates identified in KB-8-5-11 adenocarcinoma cell line, qHTS therapeutic library screen (AID 1346987); note: nearly all actives have a fitted effect of over 65% in size; for activity change, negative = cytotoxicity: % is set by controls: 0 for no effect and ±100 for the full control effect
How it was run: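 Steps: plate 500 KB-8-5-11 cells/well in DMEM + 10% FCS (colchicine removed); pin compounds in dose-response; incubate 72 h, 37 degree C, 5% CO2; add CellTiter-Glo, 5 min; read luminescence.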

[2] = test system: Zika virus NS2B-NS3 protease (unlinked complex); test: Primary screen GU Rhodamine qHTS for Zika virus inhibitors: Unlinked NS2B-NS3 protease assay (AID 1347159); note: nearly all actives have a fitted effect of over 60% in size; for activity change, negative = inhibition: % is set by controls: 0 for no effect and ±100 for the full control effect
How it was run: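 Noncovalent NS2B hydrophilic domain–NS3 protease domain complex (25 nM) preincubated 15 min at room temperature with compounds (up to 114 microM) in 10 mM Tris-HCl pH 8.0, 0.01% Tween 20; 1.5 microM Rhodamine110 substrate added, fluorescence change over 15 min fitted to Hill equation.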

[3] = Primary qHTS for inhibitors of nuclear receptor binding SET domain protein 2 (NSD2) in an isogenic RCH-ACV NSD2 p.E1099K mutant (9B) (AID 1645876); note: nearly all actives have a fitted effect of over 70% in size
[4] = Primary qHTS for inhibitors of nuclear receptor binding SET domain protein 2 (NSD2) in an RCH-ACV wild type WT cells (2C) (AID 1645877); conditions: activity change, negative = cell killing: at 44.9 µM (top of the series) unless noted; note: nearly all actives have a fitted effect of over 70% in size; for activity change, negative = cell killing: % is set by controls: 0 for no effect and ±100 for the full control effect
CRL-7250 = normal cell line; test: Cytotoxic Profiling of Annotated Libraries Using Quantitative High-Throughput Screening (AID 1296008); conditions: Five cell lines viability, CellTiter-Glo ATP luminescence, 48-72 h; max response: active compounds read low; note: nearly all actives have a fitted effect of over 60% in size; for max response: % is set by controls: 0 for no effect and ±100 for the full control effect
How it was run: (§1)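 Cytotoxicity was measured as CellTiter-Glo ATP luminescence, read after 10 min at room temperature. Compound treatment of the cells lasted 48 or 72 hr at 37 degrees Celsius in a qHTS format.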

NIH3T3 = test: as above; conditions: Five cell lines viability, CellTiter-Glo ATP luminescence, 48-72 h; max response: active compounds read low
How it was run: as §1

[5] = Primary qHTS for small molecule stabilizers of the endoplasmic reticulum resident proteome: Secreted ER Calcium Modulated Protein (SERCaMP) assay (AID 1508630); conditions: SH-SY5Y GLuc-SERCaMP (Gaussia luciferase released on ER calcium loss) secretion, thapsigargin, luminescence; activity change, negative = inhibition: at 38.4 µM (top of the series) unless noted
How it was run: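 GLuc-SERCaMP-expressing SH-SY5Y cells, pretreated 16 h with compound, are challenged with thapsigargin to empty ER calcium stores; after 4 h, coelenterazine is added directly to the medium and luminescence is imaged.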

OV90 = test: Primary qHTS to identify gynecologic anti-cancer compounds using libraries of approved drugs and bioactive compounds (AID 1345084); conditions: Gynecologic cancer cell panel viability, ATPlite luminescence, 48 h; series mostly up to 57.5 µM; note: nearly all actives have a fitted effect of over 55% in size
How it was run: (§2)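 Five-concentration response, 48 h; readout is ATP-driven luciferase luminescence.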

SKOV3 = test: as above; conditions: Gynecologic cancer cell panel viability, ATPlite luminescence, 48 h; series mostly up to 57.5 µM
How it was run: as §2

[6] = test system: Zika virus NS2B-NS3 protease (linked construct); test: Primary screen NINDS Rhodamine qHTS for Zika virus inhibitors (AID 1347160); conditions: activity change, negative = inhibition: at 57.1 µM (top of the series) unless noted; note: nearly all actives have a fitted effect of over 55% in size
How it was run: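 Purified linked NS2B-NS3 protease (NS2B hydrophilic domain joined to NS3 protease by flexible linker), 25 nM in 10 mM Tris-HCl pH 8.0, 0.01% Tween 20. Compounds titrated, 15 min preincubation at room temperature; 1.5 microM Rhodamine110 substrate, FITC fluorescence change over 15 min.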

[7] = Primary fluorescence-based thiol-reactive (MSTI) qHTS assay for identification of artifact compounds. (AID 1845221);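 note: thiol-reactive compounds lower the probe fluorescence signal; nearly all actives have a fitted effect of over 65% in size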
How it was run: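 In PBS pH 7.4 with 2% DMSO, each compound met 4 uM MSTI for one hour at ambient temperature, shielded from light, before fluorescence detection.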

PA-1 = test: Primary qHTS to identify gynecologic anti-cancer compounds using libraries of approved drugs and bioactive compounds (AID 1345084); conditions: Gynecologic cancer cell panel viability, ATPlite luminescence, 48 h; series mostly up to 57.5 µM; note: nearly all actives have a fitted effect of over 55% in size
How it was run: as §2

[8] = qHTS of pediatric cancer cell lines to identify multiple opportunities for drug repurposing: Primary screen for SK-N-MC cells (AID 1347093); conditions: SK-N-MC viability, CellTiter-Glo luminescence, 48 h; activity change, negative = cytotoxic: at 46 µM (top of the series);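 for activity change, negative = cytotoxic: plate controls were DMSO neutral control for no effect and bortezomib for full effect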
How it was run: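 Metabolically active cells were quantified by ATP-dependent luminescence (CellTiter-Glo, 15 min at room temperature) following 48 h treatment. Cells had been plated at 500-1,000 per well and settled for 5 h beforehand.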

[9] = biological target: Cytochrome P450 2D6 (Homo sapiens) (UniProt P10635); test: Cytochrome P450 family 2 subfamily D member 6 (CYP2D6) small molecule antagonists: luciferase biochemical (cell-free) qHTS assay (AID 1645840; active = well fitted curve in the direction sought with a large enough effect in the repeat runs; inconclusive = weak or mixed curves; inactive = no such curve, though single readings can be large; an effect the other way counts as inactive or inconclusive; note: nearly all actives have a fitted effect of over 55% in size)
How it was run: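 P450-Glo luminescent screen: recombinant CYP2D6 enzyme–proluciferin substrate mix preincubated with compound 10 min at room temperature, then NADPH regeneration added for 1 h at room temperature. Detection reagent added for 20 min; luciferin light read as relative luminescence units.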

[10] = biological target: Cytochrome P450 2C9 (Homo sapiens) (UniProt P11712); test: Cytochrome P450 family 2 subfamily C member 9 (CYP2C9) small molecule antagonists: luciferase biochemical (cell-free) qHTS assay (AID 1645842; active = well fitted curve in the direction sought with a large enough effect in the repeat runs; inconclusive = weak or mixed curves; inactive = no such curve, though single readings can be large; an effect the other way counts as inactive or inconclusive; note: nearly all actives have a fitted effect of over 55% in size)
How it was run: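 Luminescence, after 20 min with luciferin detection reagent, reflected CYP2C9 turnover during a 1 h NADPH-driven reaction at 37C. Enzyme-substrate mix contained 0.4% bovine serum albumin and was preincubated with compound 10 min at room temperature.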

Tov-21-G = test: Primary qHTS to identify gynecologic anti-cancer compounds using libraries of approved drugs and bioactive compounds (AID 1345084); conditions: Gynecologic cancer cell panel viability, ATPlite luminescence, 48 h; activity change, negative = cytotoxicity: at 57.5 µM (top of the series) unless noted; note: nearly all actives have a fitted effect of over 55% in size
How it was run: as §2

Hek293T = test: as above; conditions: Gynecologic cancer cell panel viability, ATPlite luminescence, 48 h, control line for the selectivity index; activity change, negative = cytotoxicity: at 57.5 µM (top of the series) unless noted
How it was run: as §2
Potency is the fitted concentration of half-maximal effect; tags give direction and shape of the fitted curve.

Chain of UniProt P11712 (P11712 whole entry, looked up): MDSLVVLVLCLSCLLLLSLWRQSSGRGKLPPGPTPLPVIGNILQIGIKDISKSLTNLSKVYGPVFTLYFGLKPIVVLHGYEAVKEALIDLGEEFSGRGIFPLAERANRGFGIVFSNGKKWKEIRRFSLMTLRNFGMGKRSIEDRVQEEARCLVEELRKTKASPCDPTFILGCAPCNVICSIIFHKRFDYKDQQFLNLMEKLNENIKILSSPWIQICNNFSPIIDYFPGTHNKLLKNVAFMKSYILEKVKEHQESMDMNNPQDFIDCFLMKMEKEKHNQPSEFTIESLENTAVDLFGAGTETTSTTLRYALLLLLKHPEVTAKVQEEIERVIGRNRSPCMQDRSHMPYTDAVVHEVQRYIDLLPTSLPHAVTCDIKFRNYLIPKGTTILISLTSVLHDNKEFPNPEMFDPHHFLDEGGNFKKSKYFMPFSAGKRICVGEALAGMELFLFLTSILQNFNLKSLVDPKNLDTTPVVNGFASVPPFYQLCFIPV
Chain of UniProt P10635 (P10635 whole entry, looked up): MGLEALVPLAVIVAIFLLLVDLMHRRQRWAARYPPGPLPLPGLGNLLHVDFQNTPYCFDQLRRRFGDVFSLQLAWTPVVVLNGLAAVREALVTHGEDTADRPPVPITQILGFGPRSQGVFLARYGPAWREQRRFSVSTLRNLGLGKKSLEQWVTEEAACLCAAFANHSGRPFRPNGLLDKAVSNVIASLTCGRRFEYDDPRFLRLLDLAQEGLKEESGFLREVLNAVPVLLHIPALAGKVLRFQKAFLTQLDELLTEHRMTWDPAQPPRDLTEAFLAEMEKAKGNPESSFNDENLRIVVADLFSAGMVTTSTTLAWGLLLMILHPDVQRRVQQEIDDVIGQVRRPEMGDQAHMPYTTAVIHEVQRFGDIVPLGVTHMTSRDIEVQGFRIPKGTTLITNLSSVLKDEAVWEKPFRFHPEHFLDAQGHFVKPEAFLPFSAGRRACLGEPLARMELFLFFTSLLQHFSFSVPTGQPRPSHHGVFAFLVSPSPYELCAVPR

C=C1CC[C@H]2[C@@](C)(CCC(O)[C@@]2(C)CO)[C@@H]1CCC1=CCOC1=O (stereo partly specified)
Potency [1]: inactive | Potency [2]: inactive | Potency [3]: inconclusive: 20.1 µM [inhibitor, single point] | Potency [4]: inconclusive: 20.1 µM [inhibitor, single point] | max response (CRL-7250): inactive: 0.497% | max response (NIH3T3): inactive: -1.37%

CCOc1ccccc1OCCN[C@H](C)Cc1ccc(OC)c(S(N)(=O)=O)c1
Potency [5]: inconclusive: 25.1 µM [inhibitor, single point] | Potency [4]: inactive | Potency (CRL-7250): inconclusive: 5.31 µM [inhibitor, single point] | max response (NIH3T3): inactive: 2.8% | Potency (OV90): inconclusive: 31.6 µM [cytotoxic, partial curve, poor fit] | Potency (SKOV3): inactive

CCCC(=O)O[C@@H]1[C@@H]2[C@@H](OC(C)=O)[C@]3(C)C(=O)[C@H]4[C@@H](OC(C)=O)C(C)(C)C[C@H]4[C@]3(C)C(=O)[C@@]2(OC(C)=O)C[C@@H]1C
Potency [3]: inactive | Potency [4]: inactive | Potency (CRL-7250): inconclusive: 15.9 µM [inhibitor, single point] | outcome (NIH3T3): inactive

O=C(O[C@@H]1O[C@H](CO)[C@@H](O)[C@H](O)[C@H]1O)c1c(O)cc(O)cc1/C=C/c1ccccc1
Potency [6]: inconclusive: 7.94 µM [inhibitor, single point] | Potency [3]: inconclusive: 8.93 µM [inhibitor, partial curve, poor fit] | max response (CRL-7250): inactive: 2.06% | max response (NIH3T3): inactive: 3.61% | Potency (OV90): inactive | Potency (SKOV3): inactive

C[C@@H]1CCC2C(C)(C)[C@H](O)CC[C@]2(C)[C@@]12Cc1c(O)cc3c(c1O2)CN([C@@H](CCC(=O)O)C(=O)O)C3=O (stereo partly specified)
Potency [2]: inconclusive: 7.94 µM [inhibitor, full curve] | Potency [6]: inconclusive: 11.2 µM [inhibitor, single point] | Potency [3]: inactive | Potency [7]: inactive | outcome (CRL-7250): inactive | Potency (NIH3T3): inconclusive: 7.09 µM [inhibitor, partial curve] | Potency (PA-1): inconclusive: 15.8 µM [rising, partial curve, poor fit]

Cc1oc(-c2ccccc2)nc1CCC(=O)c1ccc(CC2SC(=O)NC2=O)cc1 (stereo unspecified)
Potency [8]: inconclusive: 29.9 µM [cytotoxic, single point] | Potency [9]: inconclusive: 38.9 µM [inhibitor, single point] | Potency [10]: inconclusive: 11 µM [inhibitor, partial curve] | Potency [3]: inconclusive: 9.44 µM [inhibitor, partial curve] | Potency [4]: inconclusive: 29.9 µM [inhibitor, single point] | max response (CRL-7250): inactive: -17.6%

C=CC1(C)C=C2CCC3C(C)(C)C(O[C@@H]4O[C@@H](CO)[C@H](O)[C@H]4O)CCC3(C)C2CC1O[C@@H]1O[C@H](C)[C@H](O)[C@H](O)[C@H]1O (stereo partly specified)
max response (CRL-7250): inactive: -0.496% | max response (NIH3T3): inactive: -6.13% | Potency (SKOV3): inactive

CC(=O)/C=C/C1(O)C(C)CC(O[C@@H]2O[C@H](CO)[C@@H](O)[C@H](O)[C@H]2O)CC1(C)C (stereo partly specified)
Potency [2]: inconclusive: 35.5 µM [inhibitor, partial curve] | Potency [6]: inactive | Potency [7]: active: 9.22 µM | outcome (CRL-7250): inactive | max response (NIH3T3): inactive: -2.62% | Potency (Tov-21-G): inactive

COc1cc(O)cc(C)c1C(=O)O[C@@H]1[C@H](O)[C@@H](CO)O[C@H]1n1ccc(=O)[nH]c1=O
Potency [1]: inconclusive: 2.82 µM [inhibitor, single point] | Potency [3]: inactive | Potency (CRL-7250): inconclusive: 7.96 µM [inhibitor, partial curve, poor fit] | Potency (NIH3T3): inconclusive: 14.2 µM [inhibitor, single point] | Potency (Hek293T): inconclusive: 10 µM [cytotoxic, partial curve, poor fit] | Potency (PA-1): active: 3.98 µM | Potency (Tov-21-G): inconclusive: 12.6 µM [cytotoxic, single point]

CN(C)CCN(Cc1ccsc1)c1ccccn1
Potency [8]: inactive | Potency [10]: inactive | Potency [3]: inactive | max response (CRL-7250): inactive: -0.513%

CC(C)(N)c1ncc(-c2ccc(OC(F)(F)F)cc2)[nH]1
Potency [1]: inconclusive: 18.4 µM [inhibitor, single point] | Potency [10]: inconclusive: 23.9 µM [inhibitor, single point] | Potency [3]: inconclusive: 25.8 µM [inhibitor, single point] | Potency [4]: inconclusive: 11.5 µM [inhibitor, partial curve] | Potency (CRL-7250): inconclusive: 29.1 µM [inhibitor, single point] | Potency (NIH3T3): inconclusive: 16.4 µM [inhibitor, partial curve] | Potency (Hek293T): inactive | Potency (PA-1): inactive | Potency (SKOV3): inconclusive: 8.91 µM [cytotoxic, single point]

Cc1cccc(C)c1NC(=O)CC12CCCN1CCC2
Potency [4]: inactive | max response (CRL-7250): inactive: 2.63%
